The target of test [1] is T1, human mesothelin (MSLN) (human, UniProt Q13421 296-598). As to the kind of experiment: cell-based or functional assay.
Test [2] addresses T1, human mesothelin (MSLN). As to the kind of experiment: cell-based or functional assay. This is another data set of the same source.
For test [3], the target named is T2, human CD3 epsilon chain (CD3ε) (human, UniProt P07766).
T2 construct: also called CD3ε on human T cells; human CD3ε
In words: FACS on isolated human T cells; FITC anti-human light chain secondary. The method, then:
The heterodimeric bispecific antibodies described in Example 1 were produced in HEK 293 cells and were assayed by fluorescence activated cell sorting (FACS) for binding to T cells, which express CD3ε, and to a human ovarian cancer cell line, Ovcar-8, which expresses mesothelin. Briefly, the heterodimeric bispecific antibodies were incubated with about 50,000 Ovcar-8 cells or isolated human or cynomolgus monkey T cells at 4° C. for one hour. The cells were then washed and stained with a fluorescein isothiocyanate (FITC)-conjugated anti-human light chain secondary antibody and analyzed by flow cytometry. The relative binding was represented by the geometric mean of fluorescence intensity.

From patent publication US20160115241A1 (Amgen, published 2016) come the findings set out here.

Like-named read-outs stand apart in the source and are kept apart here.

T1 sequence (Q13421 other isoform, or with tags, fused parts or gaps limits assumed): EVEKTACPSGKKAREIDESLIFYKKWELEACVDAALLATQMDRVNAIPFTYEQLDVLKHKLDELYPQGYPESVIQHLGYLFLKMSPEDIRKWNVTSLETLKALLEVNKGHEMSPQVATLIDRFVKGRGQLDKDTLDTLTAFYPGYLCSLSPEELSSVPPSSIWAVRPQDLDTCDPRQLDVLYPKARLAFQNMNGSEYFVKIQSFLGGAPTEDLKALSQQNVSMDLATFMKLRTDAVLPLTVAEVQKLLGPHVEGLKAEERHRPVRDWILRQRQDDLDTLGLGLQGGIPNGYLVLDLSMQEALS
T2 sequence (P07766 22-207 limits assumed): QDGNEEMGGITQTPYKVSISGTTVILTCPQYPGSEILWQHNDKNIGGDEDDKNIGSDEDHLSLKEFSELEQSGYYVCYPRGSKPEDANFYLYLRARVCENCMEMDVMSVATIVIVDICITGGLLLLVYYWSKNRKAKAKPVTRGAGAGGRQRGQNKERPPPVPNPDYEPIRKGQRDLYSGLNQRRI

B1: […].5 (anti-MSLN/CD3ε heterodimeric bispecific antibody) (bispecific antibody)
chain 1: [no letters for about 120 residues]ASTKGPQVQLQESGPGLVKPSETLSLTCTVSGGSIISHYWSWIRQPPGKGLEWIGYIYYSGSTNYNPSLKSRVTISVDTSKNQFSLKLTSVTAADTAVYYCARDGWSAFDYWGQGTLVTVSSASTKGPSVFPLAPCSRSTSESTAALGCLVKDYFPEPVTVSWNSGALTSGVHTFPAVLQSSGLYSLSSVVTVPSSNFGTQTYTCNVDHKPSNTKVDKTVGGGGSAAAVPRDLEVVAATPTSLLISWDAPHHGVAYYRITYGETGGNSPVQEFTVPGSKSTATISGLKPGVDYTINVYAVLAYPRGYPLSKPISINYRTDYKDDDDKGSSHHHHHH
chain 2: not shown
notes: second chain: two variable regions, CL
For B1, the “Human TDCC EC50 (pM), Ovcar-8 target cells with human T cells” value in the test with human mesothelin (MSLN) [1] and in the test with human mesothelin (MSLN) [2] was 0.12 pM in each case. The “FACS binding (geometric mean)” value in test [3] is 220 geometric mean of fluorescence intensity.
